From the supplement of paper PMC10037445
± gives the standard deviation of the averaged measurements. Whole data set: some 2,900 compounds, median “IRF Lucia reporter activity, fold change vs agonist alone” near 0.9, cut for the highest 2% near 2.8. Some of the results follow.

Legend:
RAW-Dual [1] = assay: IRF Lucia reporter activity, fold change vs agonist alone; cytotoxicity flag (confluency mask): not cytotoxic; higher = enhanced IRF activity
Method in brief: (§1)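 RAW-Dual macrophages (50,000 cells/well in DMEM, 384-well plates) received 50 nL of library stock by pin tool, then a PRR agonist 1 h later, and were kept at 37 °C, 5% CO2. After 20 hours, supernatant was read for IRF by QuantiLuc luminescence and for NF-κB by QuantiBlue absorbance at 620 nm. Reporter activity is fold change over agonist-alone wells. Cytotoxic wells had IncuCyte confluency below 70% of agonist controls in both mask sets.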

RAW-Dual [2] = assay: IRF Lucia reporter activity, fold change vs agonist alone; higher = enhanced IRF activity; settings: agonist: MPLA (TLR4) […]
Method in brief: as §1

RAW-Dual [3] = assay: IRF Lucia reporter activity, fold change vs agonist alone; cytotoxicity flag (confluency mask): cytotoxic (confluency <70% of control); higher = enhanced IRF activity
Method in brief: as §1

[4] = agonist: 3'3'-cGAMP (STING) 10 ug/mL
[5] = library stock concentration (final ~1000-fold dilution): 10 mM, cytotoxicity flag (confluency mask): not cytotoxic
[6] = library stock concentration (final ~1000-fold dilution): 10 mM, cytotoxicity flag (confluency mask): cytotoxic (confluency <70% of control)

CC1(c2nc3c(C(N)=O)cccc3[nH]2)CCCN1 (configuration not stated) (library stock concentration (final ~1000-fold dilution): 10 mM)
IRF Lucia reporter activity (RAW-Dual [1]; [4]): 0.573
IRF Lucia reporter activity (RAW-Dual [1]; agonist: LPS (TLR4) 0.1 ug/mL): 0.842

CC1(c2nc3c(C(N)=O)cccc3[nH]2)CCCN1 (configuration not stated)
IRF Lucia reporter activity (RAW-Dual [2]; [5]): 0.639

CCc1cncnc1N1CCN(Cc2nc3cc(C(F)(F)F)ccc3[nH]2)CC1 (library stock concentration (final ~1000-fold dilution): 10 mM)
IRF Lucia reporter activity (RAW-Dual [1]; [4]): 0.539
IRF Lucia reporter activity (RAW-Dual [1]; agonist: LPS (TLR4) 0.1 ug/mL): 0.646

CCc1cncnc1N1CCN(Cc2nc3cc(C(F)(F)F)ccc3[nH]2)CC1
IRF Lucia reporter activity (RAW-Dual [2]; [5]): 0.88

COc1ccc(-n2c(C)c([N+](=O)[O-])c3ccc(O)cc32)cc1
IRF Lucia reporter activity (RAW-Dual [2]; [5]): 0.517

COc1ccc(-n2c(C)c([N+](=O)[O-])c3ccc(O)cc32)cc1 (library stock concentration (final ~1000-fold dilution): 10 mM)
IRF Lucia reporter activity (RAW-Dual [1]; [4]): 0.0617
IRF Lucia reporter activity (RAW-Dual [1]; agonist: LPS (TLR4) 0.1 ug/mL): 0.402

O=S(=O)(c1ccccc1)c1cnc2c(N3CCNCC3)cccc2c1 (library stock concentration (final ~1000-fold dilution): 10 mM)
IRF Lucia reporter activity (RAW-Dual [1]; [4]): 0.934
IRF Lucia reporter activity (RAW-Dual [1]; agonist: LPS (TLR4) 0.1 ug/mL): 1.02

O=S(=O)(c1ccccc1)c1cnc2c(N3CCNCC3)cccc2c1
IRF Lucia reporter activity (RAW-Dual [2]; [5]): 1.04

NC(=O)N1CCC(CC(=O)N2CCC(C3c4ncc(Br)cc4CCc4cc(Cl)cc(Br)c43)CC2)CC1 (configuration not stated) (library stock concentration (final ~1000-fold dilution): 10 mM)
IRF Lucia reporter activity (RAW-Dual [3]; [4]): 0.274
IRF Lucia reporter activity (RAW-Dual [3]; agonist: LPS (TLR4) 0.1 ug/mL): 0.566

NC(=O)N1CCC(CC(=O)N2CCC(C3c4ncc(Br)cc4CCc4cc(Cl)cc(Br)c43)CC2)CC1 (configuration not stated)
IRF Lucia reporter activity (RAW-Dual [2]; [6]): 0.761

CCOc1cc(C(C)(C)C)ccc1C1=NC(C)(c2ccc(Cl)cc2)C(C)(c2ccc(Cl)cc2)N1C(=O)N1CCN(CCCS(C)(=O)=O)CC1 (configuration not stated) (library stock concentration (final ~1000-fold dilution): 10 mM)
IRF Lucia reporter activity (RAW-Dual [3]; [4]): 0.153
IRF Lucia reporter activity (RAW-Dual [3]; agonist: LPS (TLR4) 0.1 ug/mL): 1.03

CCOc1cc(C(C)(C)C)ccc1C1=NC(C)(c2ccc(Cl)cc2)C(C)(c2ccc(Cl)cc2)N1C(=O)N1CCN(CCCS(C)(=O)=O)CC1 (configuration not stated)
IRF Lucia reporter activity (RAW-Dual [2]; [6]): 0.942

CCCC(=O)Nc1ccc(OCC(O)CNC(C)C)c(C(C)=O)c1.Cl (configuration not stated)
IRF Lucia reporter activity (RAW-Dual [2]; [5]): 1.08

CCCC(=O)Nc1ccc(OCC(O)CNC(C)C)c(C(C)=O)c1.Cl (configuration not stated) (library stock concentration (final ~1000-fold dilution): 10 mM)
IRF Lucia reporter activity (RAW-Dual [1]; [4]): 1.03
IRF Lucia reporter activity (RAW-Dual [1]; agonist: LPS (TLR4) 0.1 ug/mL): 0.912

CC(C)c1ccc(C(=O)NC(=N)N)cc1S(C)(=O)=O (library stock concentration (final ~1000-fold dilution): 10 mM)
IRF Lucia reporter activity (RAW-Dual [1]; [4]): 0.998
IRF Lucia reporter activity (RAW-Dual [1]; agonist: LPS (TLR4) 0.1 ug/mL): 1.14

CC(C)c1ccc(C(=O)NC(=N)N)cc1S(C)(=O)=O
IRF Lucia reporter activity (RAW-Dual [2]; [5]): 1.15

NS(=O)(=O)NCCNc1nonc1C(=Nc1ccc(F)c(Br)c1)NO (library stock concentration (final ~1000-fold dilution): 10 mM)
IRF Lucia reporter activity (RAW-Dual [1]; [4]): 1.13
IRF Lucia reporter activity (RAW-Dual [1]; agonist: LPS (TLR4) 0.1 ug/mL): 0.947

CN1CCN(CCCNc2ncc(Cl)c(-c3cc4c(C(=O)NC5CC5)cccc4s3)n2)CC1.Cl.Cl.Cl (library stock concentration (final ~1000-fold dilution): 10 mM)
IRF Lucia reporter activity (RAW-Dual [1]; [4]): 0.171 ± 0.028
IRF Lucia reporter activity (RAW-Dual [1]; agonist: LPS (TLR4) 0.1 ug/mL): 0.119 ± 0.032

COC1C(OC(=O)/C=C/C=C/C=C/C=C/C(=O)O)CCC2(CO2)C1C1(C)OC1CC=C(C)C (configuration not stated) (library stock concentration (final ~1000-fold dilution): 10 mM)
IRF Lucia reporter activity (RAW-Dual [1]; [4]): 0.815
IRF Lucia reporter activity (RAW-Dual [1]; agonist: LPS (TLR4) 0.1 ug/mL): 0.977

Cl.O=c1n(CCCN2CCN(c3cccc(Cl)c3)CC2)nc2ccccn12
IRF Lucia reporter activity (RAW-Dual [2]; library stock concentration (final ~1000-fold dilution): 2 mM, cytotoxicity flag (confluency mask): not cytotoxic): 1.28

Cl.O=c1n(CCCN2CCN(c3cccc(Cl)c3)CC2)nc2ccccn12 (library stock concentration (final ~1000-fold dilution): 2 mM)
IRF Lucia reporter activity (RAW-Dual [1]; [4]): 0.845
IRF Lucia reporter activity (RAW-Dual [1]; agonist: LPS (TLR4) 0.1 ug/mL): 0.945

CS(=O)(=O)O.Fc1ccc(C2CCNCC2COc2ccc3c(c2)OCO3)cc1 (configuration not stated)
IRF Lucia reporter activity (RAW-Dual [2]; [6]): 1.64

CS(=O)(=O)O.Fc1ccc(C2CCNCC2COc2ccc3c(c2)OCO3)cc1 (configuration not stated) (library stock concentration (final ~1000-fold dilution): 10 mM)
IRF Lucia reporter activity (RAW-Dual [3]; [4]): 0.828
IRF Lucia reporter activity (RAW-Dual [3]; agonist: LPS (TLR4) 0.1 ug/mL): 1.1

C=CC(=O)Nc1cc(Nc2nccc(-n3cc(CN(C)C)c(-c4ccccc4)n3)n2)c(OC)cc1N1CCOCC1 (library stock concentration (final ~1000-fold dilution): 2 mM)
IRF Lucia reporter activity (RAW-Dual [1]; [4]): 0.583
IRF Lucia reporter activity (RAW-Dual [1]; agonist: LPS (TLR4) 0.1 ug/mL): 1.19

COc1ccc(CCNCC(O)COc2cccc(C)c2)cc1OC.Cl (configuration not stated) (library stock concentration (final ~1000-fold dilution): 10 mM)
IRF Lucia reporter activity (RAW-Dual [1]; [4]): 1.03
IRF Lucia reporter activity (RAW-Dual [1]; agonist: LPS (TLR4) 0.1 ug/mL): 1.42

COc1ccc(CCNCC(O)COc2cccc(C)c2)cc1OC.Cl (configuration not stated)
IRF Lucia reporter activity (RAW-Dual [2]; [5]): 1.13

COc1ccc(-c2cc(C(F)F)nn2-c2ccc(S(N)(=O)=O)cc2)cc1F (library stock concentration (final ~1000-fold dilution): 10 mM)
IRF Lucia reporter activity (RAW-Dual [1]; [4]): 1.24
IRF Lucia reporter activity (RAW-Dual [1]; agonist: LPS (TLR4) 0.1 ug/mL): 1.39

COc1ccc(-c2cc(C(F)F)nn2-c2ccc(S(N)(=O)=O)cc2)cc1F
IRF Lucia reporter activity (RAW-Dual [2]; [5]): 1.43

FC(F)(F)Oc1ccc2[nH]c(-c3ccc(OCCOCCOc4ccc(-c5nc6cc(OC(F)(F)F)ccc6[nH]5)nc4)cn3)nc2c1 (library stock concentration (final ~1000-fold dilution): 10 mM)
IRF Lucia reporter activity (RAW-Dual [1]; [4]): 0.7
IRF Lucia reporter activity (RAW-Dual [1]; agonist: LPS (TLR4) 0.1 ug/mL): 1.15

CCN(CC)C(=O)C1(c2ccccc2)CC1CN.Cl (configuration not stated)
IRF Lucia reporter activity (RAW-Dual [2]; [5]): 0.971

CCN(CC)C(=O)C1(c2ccccc2)CC1CN.Cl (configuration not stated) (library stock concentration (final ~1000-fold dilution): 10 mM)
IRF Lucia reporter activity (RAW-Dual [1]; [4]): 1.01
IRF Lucia reporter activity (RAW-Dual [1]; agonist: LPS (TLR4) 0.1 ug/mL): 0.762

CC(C)(O)c1ccccc1CCC(SCC1(CC(=O)O)CC1)c1cccc(/C=C/c2ccc3ccc(Cl)cc3n2)c1 (configuration not stated) (library stock concentration (final ~1000-fold dilution): 10 mM)
IRF Lucia reporter activity (RAW-Dual [3]; [4]): 0.492
IRF Lucia reporter activity (RAW-Dual [3]; agonist: LPS (TLR4) 0.1 ug/mL): 1.52

CC(C)(O)c1ccccc1CCC(SCC1(CC(=O)O)CC1)c1cccc(/C=C/c2ccc3ccc(Cl)cc3n2)c1 (configuration not stated)
IRF Lucia reporter activity (RAW-Dual [2]; [6]): 0.73

CC(C)COCC(CN(Cc1ccccc1)c1ccccc1)N1CCCC1.Cl.O (configuration not stated) (library stock concentration (final ~1000-fold dilution): 10 mM)
IRF Lucia reporter activity (RAW-Dual [3]; [4]): 0.141
IRF Lucia reporter activity (RAW-Dual [3]; agonist: LPS (TLR4) 0.1 ug/mL): 0.96

CNCCCN1c2ccccc2CCc2ccccc21.Cl (library stock concentration (final ~1000-fold dilution): 10 mM)
IRF Lucia reporter activity (RAW-Dual [3]; [4]): 0.427
IRF Lucia reporter activity (RAW-Dual [3]; agonist: LPS (TLR4) 0.1 ug/mL): 1.52

CNCCCN1c2ccccc2CCc2ccccc21.Cl
IRF Lucia reporter activity (RAW-Dual [2]; [6]): 1.27
